Assay results from the supplement of paper PMC13380429.
Shown are results outside the selection of hits, which stands elsewhere.

Tested on: Vero E6 infected with SARS-CoV-2
Assay: inhibition of SARS-CoV-2 cytopathic effect; higher = more antiviral protection, active = above 15
Details: 48 h

Measured: inhibition of SARS-CoV-2 cytopathic effect

CN1C2CCC1CC(OC(=O)C(O)c1ccccc1)C2 (stereo not given) [Homatropine Bromide]
inactive: 1 nM 1.2% | 8.33 nM -1.64% | 100 nM -3.44% | 833.33 nM -1.43% | 10000 nM -0.28%

O=C1NC(=O)c2c1c(-c1ccccc1)cc1[nH]c3ccc(O)cc3c21
inactive: 1 nM 2.07% | 8.33 nM 1.35% | 100 nM 2.47% | 833.33 nM 6% | 10000 nM -1.83%

Cc1ccccc1-n1c(Cn2nc(-c3cccc(O)c3)c3c(N)ncnc32)nc2cccc(C)c2c1=O
inactive: 1 nM -1.47% | 8.33 nM 0.65% | 100 nM 0.25% | 833.33 nM -1.41% | 10000 nM 2.73%

Cc1ccc(C(=O)NCCCCCC(=O)Nc2ccccc2N)cc1
inactive: 1 nM -1.61% | 8.33 nM -0.58% | 100 nM -1.18% | 833.33 nM 2.18% | 10000 nM 1.85%

CCC(C)C(C(=O)OCC[N+](C)(CC)CC)c1ccccc1 (stereo not given) [valethamate]
inactive: 1 nM 2.32% | 8.33 nM 0.57% | 100 nM 3.26% | 833.33 nM -0.11% | 10000 nM 3.21%

Cc1nc2c(-c3cnc(N)nc3)nc(N3CCOCC3)nc2n1C(C)C
inactive: 1 nM 2.51% | 8.33 nM 0.28% | 100 nM 3.48% | 833.33 nM -5.92% | 10000 nM -13.3%

COc1cc(N2CCN(C(C)=O)CC2)ccc1Nc1ncc(Cl)c(Nc2ccc(N3CCN(C(C)=O)CC3)cc2OC)n1
inactive: 1 nM -0.98% | 8.33 nM 0.49% | 100 nM -0.8% | 833.33 nM 2.01% | 10000 nM 1%
